Assay results from article PMC4336329 (PLoS ONE, 2015).
Hit rate of the full screen: of about 310,000 compounds, about 2,200 (0.71%) showed an effect of 50% or more. Effects have a minus sign here. The list shows a part of the results.

target: human ether-à-go-go-related gene (hERG) potassium channel (human, UniProt Q12809); test: primary screen, population patch clamp on CHO cells stably expressing hERG
Sequence (Q12809 whole entry, looked up): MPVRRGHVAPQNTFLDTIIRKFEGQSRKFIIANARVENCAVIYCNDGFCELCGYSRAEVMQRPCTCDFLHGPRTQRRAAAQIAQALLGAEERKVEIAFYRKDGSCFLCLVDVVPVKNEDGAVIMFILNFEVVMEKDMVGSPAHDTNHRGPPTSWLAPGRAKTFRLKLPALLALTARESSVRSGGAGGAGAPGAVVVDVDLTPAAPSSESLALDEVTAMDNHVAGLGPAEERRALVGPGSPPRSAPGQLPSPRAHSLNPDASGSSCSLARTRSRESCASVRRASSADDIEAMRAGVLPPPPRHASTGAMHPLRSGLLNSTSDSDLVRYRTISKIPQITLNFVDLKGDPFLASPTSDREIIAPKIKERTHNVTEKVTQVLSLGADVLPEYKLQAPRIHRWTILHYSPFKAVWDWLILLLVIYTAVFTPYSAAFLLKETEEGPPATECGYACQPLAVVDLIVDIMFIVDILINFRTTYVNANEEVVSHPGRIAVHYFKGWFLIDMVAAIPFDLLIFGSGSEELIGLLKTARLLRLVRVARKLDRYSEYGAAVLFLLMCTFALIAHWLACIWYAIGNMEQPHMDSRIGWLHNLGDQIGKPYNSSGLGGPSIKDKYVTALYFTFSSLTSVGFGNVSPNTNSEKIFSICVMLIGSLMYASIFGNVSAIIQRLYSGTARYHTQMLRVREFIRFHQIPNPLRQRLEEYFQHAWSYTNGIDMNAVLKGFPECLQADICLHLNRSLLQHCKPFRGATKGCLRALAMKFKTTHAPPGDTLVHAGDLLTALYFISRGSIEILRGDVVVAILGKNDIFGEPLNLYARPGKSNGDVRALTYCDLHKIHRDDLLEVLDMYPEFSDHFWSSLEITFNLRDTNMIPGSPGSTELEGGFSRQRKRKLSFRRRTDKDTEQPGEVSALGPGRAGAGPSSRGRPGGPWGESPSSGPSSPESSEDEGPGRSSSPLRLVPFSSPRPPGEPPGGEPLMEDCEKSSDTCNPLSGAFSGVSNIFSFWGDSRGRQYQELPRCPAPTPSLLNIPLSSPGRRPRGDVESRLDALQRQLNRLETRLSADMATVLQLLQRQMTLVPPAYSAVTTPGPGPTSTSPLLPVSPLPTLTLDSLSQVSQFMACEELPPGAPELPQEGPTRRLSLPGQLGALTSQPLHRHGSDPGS

Structure (SMILES) | hERG current change (%, negative = inhibition) at 1uM
Cc1cccc(NC(=O)C2CCN(S(=O)(=O)c3cccc4nonc34)CC2)c1 | 8.1%
CCC(Sc1ncccn1)C(=O)Nc1cc(C)on1 (stereo not shown) | 14.4%
c1ccc(CSc2nccc(-c3ccco3)n2)cc1 | 7.49%
CCOC(=O)Cn1c(C)[n+](CC(=O)c2ccccc2)c2ccccc21.[Br-] | 13.1%
CC(OC(=O)CN1C(=O)c2ccccc2C1=O)C(=O)NC1CCCCC1C (stereo not shown) | 9.1%
CC1CCCCN1C(=O)Nc1cccc(Cl)c1 (stereo not shown) | -1.17%
CCOc1ccc(NS(=O)(=O)c2cc(C(=O)NCCCN3CCCC3=O)ccc2C)cc1 | 9.73%
CSc1ccccc1NC(=O)COC(=O)c1c[nH]c(=O)[nH]c1=O | 11.2%
CC(OC(=O)CNC(=O)c1ccco1)C(=O)Nc1ccc(Cl)cn1 (stereo not shown) | 10.4%
CC1(C)CC(=O)C=C(Nc2ccccc2N)C1 | 3.42%
COc1ccc2c(c1)CCC(C)N2S(=O)(=O)c1ccc(C2CNC(=O)C2)cc1 (stereo not shown) | 6.05%
O=C(CCCn1c(=O)[nH]c2cc(Cl)ccc2c1=O)NC1CCCCCC1 | 0.147%
Cc1nn(-c2ccc(F)cc2)c(Cl)c1/C=N/NC(=O)c1cccc(S(=O)(=O)N2CCCC2)c1 | 7.64%
Cc1ccc(-c2nc3ccccc3[nH]2)cc1NC(=O)c1sc2cc(Cl)ccc2c1Cl | 22.3%
CC(CC(=O)Nc1cccc(F)c1)S(=O)(=O)c1ccc2c(c1)NC(=O)CO2 (stereo not shown) | 3.18%
Cc1cc(C)c(C)c(S(=O)(=O)N2CCN(c3ccccn3)CC2)c1C | 8.38%
CCOc1ccc(NC(=O)CN(C)C(=O)COc2cccc(CC)c2)cc1OCC | 0.0718%
CC(C)n1c(NCCc2ccccc2)nc2c1c(=O)n(C)c(=O)n2C | 9.37%
Cc1ccc(C2CC(c3cccc(NS(C)(=O)=O)c3)=NN2S(C)(=O)=O)cc1 (stereo not shown) | -8.33%
Cc1nnc(NC(=O)CSc2nc(C(C)C)nc3ccccc23)s1 | 6.82%
Cc1c(O)ccc(C(=O)COc2ccccc2F)c1O | -0.438%
CCOC(=O)CN1C(=O)SC(CC(=O)Nc2nccs2)C1=O (stereo not shown) | 12.1%

Structure (SMILES) | hERG current change (%, negative = inhibition) at 1uM
COc1cc2c(cc1OC)CN(C1CCCN(Cc3cc(Cl)ccc3O)C1)CC2 (stereo not shown) | 2.35%
O=C(C[n+]1cccc2ccccc21)c1ccc([N+](=O)[O-])cc1.[Br-] | -53.8%
CCC(Sc1nc(C)cc(C)n1)C(=O)Nc1ccc(Cl)cn1 (stereo not shown) | -2.98%
CCOc1ccc(NC(=O)C(Cc2ccccc2)N2C(=O)c3cccc4cccc(c34)C2=O)cc1 (stereo not shown) | 14.6%
CC(C)Oc1ccc(C(=O)CCN2CCCCC2)cc1 | -9.8%
O=C(c1cccnc1)N1CCN(S(=O)(=O)c2ccc3ccccc3c2)CC1 | -20.9%
CN(C)S(=O)(=O)c1ccc2c(c1)nc(CCC(=O)NCc1ccc(Cl)cc1)n2C | -2.33%
Cc1cc(/C=C(\C#N)C(=O)NCc2ccco2)c(C)n1-c1ccc(C(=O)O)cc1 | 13.5%
CCOC(=O)c1c(NC(=O)CSc2nnc(C)s2)sc2c1CCN(C)C2 | -13.6%
CCOc1ccc(S(=O)(=O)NC(Cc2c[nH]c3ccccc23)C(=O)O)cc1 (stereo not shown) | 10.9%
N#Cc1ccc(CSc2nnc(Nc3ccccc3)s2)cc1 | 10.2%
O=C(NCC(c1ccco1)N1CCCCC1)c1cc2c(s1)CCCC2 (stereo not shown) | 16.8%
O=C1CS/C(=N\NC(=O)c2ccccc2)N1 | 12.6%
CCCn1cnc2cc(NCc3ccc(Br)cc3)ccc21 | -5.04%
CCOC(=O)C1(CC2CCCCO2)CCN(Cc2nc3ccccc3[nH]2)CC1 (stereo not shown) | -1.68%
COc1cc(/C=N/NC(=S)NC2CC3C=CC2C3)cc(OC)c1OC (stereo not shown) | 8.93%
Cc1cc(NC(=O)c2cnn3c(C(F)F)cc(-c4ccccc4)nc23)no1 | -0.0889%
Fc1ccccc1COc1ccc(/C=N/NC(=S)NCc2ccccc2)cc1 | 8.87%
CC1CCCCC1NC(=O)Cn1[nH]c(=O)c2ccccc2c1=O (stereo not shown) | -0.249%
CC(C)CC(=O)NC(=S)Nc1cc(C(F)(F)F)ccc1N1CCOCC1 | 12.3%
CC(NCc1cccs1)C(=O)Nc1cc(Cl)cc(Cl)c1 (stereo not shown) | 6.71%
Cc1ccc2occ(/C=N/NC(N)=S)c(=O)c2c1 | 12%

Structure (SMILES) | hERG current change (%, negative = inhibition) at 1uM
CCCCCCN1C=C/C(=C\C=C(C#N)C#N)c2ccccc21 | -2.75%
CN1C(=O)NC2C1N(S(C)(=O)=O)CCN2S(C)(=O)=O (stereo not shown) | 16.4%
Cc1ccc2c(c1)-c1c(ssc1=S)C(C)(C)N2C(=O)CN1C(=O)c2ccccc2C1=O | 16.3%
COc1ccc(CN2C(=O)c3cccnc3C2=O)cc1S(=O)(=O)N1CCOc2ccc(Cl)cc21 | 7.25%
Cc1ccccc1NC(=O)Cn1c([N+](=O)[O-])cnc1C | 21.1%
Cc1ccc(-c2noc(-c3ccccc3C(=O)N3CCCC3)n2)cc1 | -1.86%
CC(C(=O)O)N1CCCCC1.Cl (stereo not shown) | -4.62%
COc1ccc(C(=O)COc2ccccc2C#N)cc1 | -0.403%
COc1ccc(/C=N/NC(=O)CN(C2=NS(=O)(=O)c3ccccc32)c2ccccc2)cc1OC | 1.67%
Cc1c(NS(=O)(=O)c2cc(C(=O)NCc3cccnc3)cc(Cl)c2Cl)c(=O)n(-c2ccccc2)n1C | 11.3%
Cc1cc(=O)n2nc(N3CCC(C(=O)Nc4c(F)c(F)c(F)c(F)c4F)CC3)sc2n1 | 10.4%
COCCCNc1nc(N)c([N+](=O)[O-])c(NCC2CCCO2)n1 (stereo not shown) | 13.4%
CCn1c(=O)n(CC)c2cc(N3CCCC3)c(NC(=O)c3ccccc3OC)cc21 | 11.7%
O=C(Cn1c(=O)sc2ccccc21)NCc1ccccn1 | 8.34%
CCOc1cc(CNc2ccccc2)cc(Br)c1OCc1ccccc1F | 9.97%
O=c1[nH]c2cccc(F)c2n2cccc12 | 11.7%
O=C(CN1CCCCC1)Nc1cccc(Br)c1 | -18.1%
O=c1nc(-c2ccccc2)n(-c2ccccc2)[nH]1 | 10.2%
Cc1ccc(C(=O)c2c3ccc(C(F)(F)F)cc3[n+]([O-])n2CCC[NH3+])cc1.O=C([O-])C(F)(F)F | -64.4%
COc1ccc(N(C(=O)C(C)C)S(=O)(=O)c2ccc(Cl)cc2)cc1 | -14.7%
c1ccc(Cn2cnc3ccccc32)cc1 | 12.4%
COc1cccc(-c2nc(CS(=O)(=O)CC(=O)N3CCN(c4ccccn4)CC3)c(C)o2)c1 | 1.26%

Structure (SMILES) | hERG current change (%, negative = inhibition) at 1uM
Cc1ccsc1C(=O)N1CC(=O)Nc2ccccc21 | 19.4%
O=C(C(=O)N1CCCc2ccccc21)c1c[nH]c2ccccc12 | 11.2%
CC(=O)c1ccc(NC(=O)Nc2ccccc2)cc1 | 5.89%
O=C(COC(=O)c1ccc(Br)o1)Nc1ccc2[nH]c(=O)[nH]c2c1 | 5.73%
COc1ccccc1CN(Cc1cc2cc(C)ccc2[nH]c1=O)Cc1nnnn1CC1CCCO1 (stereo not shown) | 1.87%
Cc1ccc(S(=O)(=O)N2CCN(C(=O)CSc3nncs3)CC2)cc1 | 5.48%
O=C(COc1ccccc1F)N1CCc2ccccc2C1 | -16.8%
CCOc1ccc2nc(NC(=O)CN3CCN(C)CC3)sc2c1 | -1.48%
COc1cccc(NC(=O)c2nn(C34CC5CC(CC(C5)C3)C4)cc2[N+](=O)[O-])c1 | -0.515%
COc1ccc(C(=O)OCC(=O)c2c(N)n(C)c(=O)n(C)c2=O)cc1OC | 6.56%
CC(C)c1ccc(S(=O)(=O)N2CCN(C(C)C(=O)NC3CCCC3)CC2)cc1 (stereo not shown) | -4.92%
C=CCSc1nc(N)c(C(=O)Nc2ccccc2OC)cc1C(=O)Nc1ccccc1 | 4.49%
Cl.c1ccc(-c2ccc(OCCN3CCOCC3)cc2)cc1 | 11.9%
CCOC(=O)c1c(C=O)c2ccccc2n1Cc1ccccc1F | 9.37%
COCc1c(C(=O)OCC(=O)Nc2ccc(OC(F)F)cc2)oc2ccccc12 | 7.56%
O=C(c1ccc(Cl)cc1)N1CCN(S(=O)(=O)/C=C/c2ccccc2)CC1 | -6.77%
N#C/C(=C\c1cccc2ccccc12)c1nn(-c2ccccc2)c(N)c1C#N | 5.93%
Cc1nc(C(F)(F)F)c(C(=O)N/N=C(\N)c2ccccn2)s1 | 5.96%
COc1ccc(-c2nnc(SCC(=O)NCCC(C)C)nc2-c2ccc(OC)c(OC)c2)cc1OC | 1.34%
c1ccc(Oc2nnc(-c3cccs3)c3ccccc23)cc1 | -8.42%
O=c1c(-c2ccco2)[n+]([O-])c2ccccc2n1OCc1c(F)cccc1F | 13.1%
C/C(N)=C(/C#N)C(=O)COC(=O)CCSc1ccccc1 | 16.3%
